Results as given in patent publication US10299477B2 (priority 2015, dated 2019).

Key:
Assay type in all cases: in vivo
Alternaia brassicicola = test: Test Example C: Alternaria sooty spot on cabbage; details: Alternaria sooty spot on cabbage
Excerpt: [Test Example C] Alternaria Sooty Spot on Cabbage
Seeds of a test plant (cabbage variety: Shikidori) were planted followed by cultivating until the cotyledons extended.

[1] = system: Blumeria graminis f sp. hordei; test: Test Example D: Powdery mildew on barley; details: Powdery mildew on barley
Excerpt: [Test Example D] Powdery Mildew on Barley
After the sprayed dilutions were dried, conidia of Blumeria graminis f sp. hordei were inoculated to the plants by shaking off.

Botrytis cinerea = test: Test Example B: Gray mold on tomato; details: Gray mold on tomato
Excerpt: [Test Example B] Gray Mold on Tomato
Seeds of a test plant (tomato variety: Oogata Fukuju) were planted followed by cultivating until three to five first leaves (true leaves) appeared.

Puccinia recondita = test: Test Example E: Brown rust on wheat; details: Brown rust on wheat
Excerpt: [Test Example E] Brown Rust on Wheat

Row | SMILES | Test C control value (Alternaia brassicicola) | Test D control value [1] | Test B control value (Botrytis cinerea) | Test E control value (Puccinia recondita)
1 | CCn1c(-c2c(F)cccc2F)c(-c2ccccc2Br)ccc1=O [Compound 85] | H (H shows more than 50% of control values) | H (H shows more than 50% of control values) | H (H shows more than 50% of control values) | H (H shows more than 50% of control values)
2 | CCn1c(-c2c(F)cccc2F)c(-c2ccccc2Br)cc(Cl)c1=O [Compound 86] | H (H shows more than 50% of control values) | H (H shows more than 50% of control values) | H (H shows more than 50% of control values) | H (H shows more than 50% of control values)
3 | CCn1c(-c2c(F)cccc2F)c(-c2ccccc2Br)cc(Br)c1=O [Compound 87] | H (H shows more than 50% of control values) | H (H shows more than 50% of control values) | H (H shows more than 50% of control values) | H (H shows more than 50% of control values)
4 | CCn1c(-c2c(F)cccc2F)c(-c2cc(OC)ccc2F)cc(Br)c1=O [Compound 88] | H (H shows more than 50% of control values) | H (H shows more than 50% of control values) | H (H shows more than 50% of control values) | H (H shows more than 50% of control values)
5 | CCn1c(-c2c(F)cccc2F)c(-c2cc(OC)ccc2F)ccc1=O [Compound 89] | H (H shows more than 50% of control values) | H (H shows more than 50% of control values) | H (H shows more than 50% of control values) | H (H shows more than 50% of control values)
6 | COc1ccc(F)c(-c2cc(Br)c(=O)n(C)c2-c2c(F)cccc2F)c1 [Compound 90] | H (H shows more than 50% of control values) | H (H shows more than 50% of control values) | H (H shows more than 50% of control values) | H (H shows more than 50% of control values)
7 | COc1ccc(F)c(-c2ccc(=O)n(C)c2-c2c(F)cccc2F)c1 [Compound 91] | H (H shows more than 50% of control values) | H (H shows more than 50% of control values) | H (H shows more than 50% of control values) | H (H shows more than 50% of control values)
8 | CCn1c(-c2c(F)cccc2F)c(-c2cc(OC)ccc2F)cc(Cl)c1=O [Compound 92] | H (H shows more than 50% of control values) | H (H shows more than 50% of control values) | H (H shows more than 50% of control values) | H (H shows more than 50% of control values)
9 | COc1ccc(F)c(-c2cc(Cl)c(=O)n(C)c2-c2c(F)cccc2F)c1 [Compound 93] | H (H shows more than 50% of control values) | H (H shows more than 50% of control values) | H (H shows more than 50% of control values) | H (H shows more than 50% of control values)
10 | Cn1c(-c2c(F)cccc2F)c(-c2ccccc2Br)ccc1=O [Compound 94] | H (H shows more than 50% of control values) | H (H shows more than 50% of control values) | H (H shows more than 50% of control values) | H (H shows more than 50% of control values)
11 | Cn1c(-c2c(F)cccc2F)c(-c2ccccc2Br)cc(Cl)c1=O [Compound 95] | H (H shows more than 50% of control values) | H (H shows more than 50% of control values) | H (H shows more than 50% of control values) | H (H shows more than 50% of control values)
12 | Cn1c(-c2c(F)cccc2F)c(-c2ccccc2Br)cc(Br)c1=O [Compound 96] | H (H shows more than 50% of control values) | H (H shows more than 50% of control values) | H (H shows more than 50% of control values) | H (H shows more than 50% of control values)
13 | CCn1c(-c2c(F)cccc2F)c(-c2cccc(OC)c2)ccc1=O [Compound 100] | H (H shows more than 50% of control values) | H (H shows more than 50% of control values) | H (H shows more than 50% of control values) | H (H shows more than 50% of control values)
14 | CCn1c(-c2c(F)cccc2F)c(-c2cccc(OCOC)c2)ccc1=O [Compound 101] | H (H shows more than 50% of control values) | H (H shows more than 50% of control values) | H (H shows more than 50% of control values) | H (H shows more than 50% of control values)
15 | CCn1c(-c2c(F)cccc2F)c(-c2c(F)ccc(OC)c2F)ccc1=O [Compound 104] | H (H shows more than 50% of control values) | H (H shows more than 50% of control values) | H (H shows more than 50% of control values) | H (H shows more than 50% of control values)
16 | CCn1c(-c2c(F)cccc2F)c(-c2c(F)ccc(OC)c2F)cc(Br)c1=O [Compound 105] | H (H shows more than 50% of control values) | H (H shows more than 50% of control values) | H (H shows more than 50% of control values) | H (H shows more than 50% of control values)
17 | CCn1c(-c2c(F)cccc2F)c(-c2c(F)ccc(OC)c2F)cc(Cl)c1=O [Compound 106] | H (H shows more than 50% of control values) | H (H shows more than 50% of control values) | H (H shows more than 50% of control values) | H (H shows more than 50% of control values)
18 | CCn1c(-c2c(F)cccc2F)c(-c2cc(OC(C)=O)ccc2Cl)ccc1=O [Compound 107] | H (H shows more than 50% of control values) | H (H shows more than 50% of control values) | H (H shows more than 50% of control values) | H (H shows more than 50% of control values)
19 | COc1ccc(F)c(-c2ccc(=O)n(C)c2-c2c(F)cccc2F)c1F [Compound 108] | H (H shows more than 50% of control values) | H (H shows more than 50% of control values) | H (H shows more than 50% of control values) | H (H shows more than 50% of control values)
20 | COc1ccc(F)c(-c2cc(Br)c(=O)n(C)c2-c2c(F)cccc2F)c1F [Compound 109] | H (H shows more than 50% of control values) | L (L shows 50% or less of control values) | H (H shows more than 50% of control values) | H (H shows more than 50% of control values)
21 | COc1ccc(F)c(-c2cc(Cl)c(=O)n(C)c2-c2c(F)cccc2F)c1F [Compound 110] | H (H shows more than 50% of control values) | H (H shows more than 50% of control values) | H (H shows more than 50% of control values) | H (H shows more than 50% of control values)
22 | CCn1c(-c2c(F)cccc2F)c(-c2ccccc2I)ccc1=O [Compound 111] | H (H shows more than 50% of control values) | H (H shows more than 50% of control values) | H (H shows more than 50% of control values) | H (H shows more than 50% of control values)
23 | CCn1c(-c2c(F)cccc2F)c(-c2ccccc2I)cc(Cl)c1=O [Compound 112] | H (H shows more than 50% of control values) | H (H shows more than 50% of control values) | H (H shows more than 50% of control values) | H (H shows more than 50% of control values)
24 | CCn1c(-c2c(F)cccc2F)c(-c2ccccc2I)cc(Br)c1=O [Compound 113] | H (H shows more than 50% of control values) | H (H shows more than 50% of control values) | H (H shows more than 50% of control values) | H (H shows more than 50% of control values)
25 | Cn1c(-c2c(F)cccc2F)c(-c2ccccc2I)ccc1=O [Compound 114] | L (L shows 50% or less of control values) | L (L shows 50% or less of control values) | H (H shows more than 50% of control values) | H (H shows more than 50% of control values)
26 | Cn1c(-c2c(F)cccc2F)c(-c2ccccc2I)cc(Cl)c1=O [Compound 115] | L (L shows 50% or less of control values) | L (L shows 50% or less of control values) | L (L shows 50% or less of control values) | H (H shows more than 50% of control values)
27 | Cn1c(-c2c(F)cccc2F)c(-c2ccccc2I)cc(Br)c1=O [Compound 116] | L (L shows 50% or less of control values) | H (H shows more than 50% of control values) | L (L shows 50% or less of control values) | H (H shows more than 50% of control values)
